Measurements from paper PMC4336329 (PLoS ONE, 2015).
Among all 310,000 compounds or so, about 2,200 (0.71%) showed an effect of 50% or more. Effects have a minus sign here. The list shows a part of the results.

target: human ether-à-go-go-related gene (hERG) potassium channel (human, UniProt Q12809); test: primary screen, population patch clamp on CHO cells stably expressing hERG
Sequence (Q12809 whole entry, looked up): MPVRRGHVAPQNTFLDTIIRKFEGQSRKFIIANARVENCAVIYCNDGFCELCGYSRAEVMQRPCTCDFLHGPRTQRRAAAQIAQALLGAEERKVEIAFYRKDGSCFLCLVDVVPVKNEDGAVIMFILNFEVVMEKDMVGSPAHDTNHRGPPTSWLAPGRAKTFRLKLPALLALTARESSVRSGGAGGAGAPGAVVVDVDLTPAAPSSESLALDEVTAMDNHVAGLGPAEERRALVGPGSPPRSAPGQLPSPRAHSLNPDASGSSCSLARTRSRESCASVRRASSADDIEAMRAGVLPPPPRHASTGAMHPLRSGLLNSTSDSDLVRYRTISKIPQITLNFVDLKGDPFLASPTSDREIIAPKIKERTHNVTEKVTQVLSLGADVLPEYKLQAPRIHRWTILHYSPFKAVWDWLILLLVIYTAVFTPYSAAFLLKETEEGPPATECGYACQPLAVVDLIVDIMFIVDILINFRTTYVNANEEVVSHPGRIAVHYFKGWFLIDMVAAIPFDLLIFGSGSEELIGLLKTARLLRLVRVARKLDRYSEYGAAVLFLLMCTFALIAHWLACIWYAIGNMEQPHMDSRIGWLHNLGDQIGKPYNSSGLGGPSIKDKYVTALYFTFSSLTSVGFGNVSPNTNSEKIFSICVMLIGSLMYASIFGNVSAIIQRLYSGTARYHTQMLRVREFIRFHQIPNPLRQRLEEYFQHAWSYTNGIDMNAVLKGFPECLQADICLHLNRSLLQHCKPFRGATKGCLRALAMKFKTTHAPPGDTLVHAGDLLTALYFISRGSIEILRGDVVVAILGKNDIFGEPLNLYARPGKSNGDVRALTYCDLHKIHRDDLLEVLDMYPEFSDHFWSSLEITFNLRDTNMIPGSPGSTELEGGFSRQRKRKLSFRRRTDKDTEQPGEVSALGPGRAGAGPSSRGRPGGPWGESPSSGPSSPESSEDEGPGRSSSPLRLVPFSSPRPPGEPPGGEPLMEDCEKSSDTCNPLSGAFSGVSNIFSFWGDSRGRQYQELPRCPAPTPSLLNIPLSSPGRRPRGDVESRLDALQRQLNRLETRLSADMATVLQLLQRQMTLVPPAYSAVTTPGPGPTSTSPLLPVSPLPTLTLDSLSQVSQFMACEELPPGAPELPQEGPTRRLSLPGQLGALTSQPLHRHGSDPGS

SMILES	hERG current change (%, negative = inhibition) at 1uM
FC(F)(F)c1ccc2c(c1)n(Cc1ccccc1)c1[n+]2CCCCC1.[Cl-]	-8.16%
OCCc1ccc(-c2ccc(Cl)cc2)o1	12.3%
CCOC(=O)c1c(C)c(C)n(Cc2ccc(OC)c(OC)c2)c1C	7.48%
CCCN(CC1CC1)C(=O)COC(=O)c1[nH]c(C)c(C(=O)OCC)c1C	9.2%
COCCN(Cc1cc2cc(C)ccc2nc1Cl)C(=O)Nc1ccccc1C	5.16%
Cc1ccc(Cn2c(=O)n(Cc3ccco3)c(=O)c3ccccc32)cc1	12.5%
CCC12OC(=N)C(C#N)(C1C)C(C#N)(C#N)C(c1ccccc1)O2 (stereo not shown)	4.09%
CN(CCNC(=O)c1ccc(CS(=O)(=O)c2c(Cl)cccc2Cl)o1)CCc1ccccc1	-50.4%
CCOc1ccc(-c2cc(C(=O)O)c3ccccc3n2)cc1	7.66%
CCN1CCCC1CNC(=O)c1cc2c(OC)cccc2[nH]1 (stereo not shown)	-11.5%
COc1ccccc1CNCC(=O)Nc1ccccc1-n1cccc1.Cl	-1.72%
Cc1noc(C)c1COc1cccc(C(=O)Oc2ccc3c(c2)OCO3)c1	4.74%
COCC(=O)Nc1ccc2c(c1)OCC(=O)N2Cc1ccccc1F	10%
COC(=O)C1=C(C)OC(N)=C(C#N)C1c1cc2cccc(C)c2nc1Cl (stereo not shown)	14.8%
COC(=O)CC/C(O)=C1/C(=N)CC(C)(C)CC1=O	20.2%
CCOP1(=O)OCC2OC(n3cnc4c(N)ncnc43)C(O)C2O1 (stereo not shown)	10.5%
COc1ccc(NC(=O)CCSc2ccc(C)cc2)cc1S(=O)(=O)Nc1ccccc1Cl	21.2%
CN(c1ccccc1)S(=O)(=O)c1ccc(Cl)c(C(=O)NCC(c2ccco2)N2CCCC2)c1 (stereo not shown)	-5.2%
CC(C)OCCCn1c(=S)[nH]c2cc3c(cc2c1=O)OCO3	17.2%
COc1ccc2nc(NC(=O)C3CCN(C(=O)c4ccco4)CC3)sc2c1	9.83%
CCOC(=O)c1c(S(=O)(=O)Nc2ccc(C)cn2)c(C)n(C)c1C	16.7%
O=c1cc(-c2ccccc2)c2ccccc2[nH]1	12.4%
CCc1ccc(OC(C)C(=O)N(Cc2ccco2)C2CCS(=O)(=O)C2)cc1 (stereo not shown)	0.46%

SMILES	hERG current change (%, negative = inhibition) at 1uM
Cc1cc(OCc2cc(C(=O)N(C)Cc3ccccn3)no2)cc(C)c1Cl	9.07%
COc1ccc(/C=C/c2nc(C#N)c(NCCN(C)C)o2)cc1OC	8.79%
O=C(Cc1ccccc1)N[C@@H](Cc1ccccc1)C(=O)O	9.01%
CN1CCN(c2c(F)cc3c(=O)c(C(=O)O)cn4c3c2SCC4)CC1	3.59%
CCn1nc(C(=O)Nc2ccc(C)c(C)c2)c(Cl)c1Cl	7.46%
O=Cc1cn(-c2ccccc2)nc1-c1ccncc1	-6.77%
CCn1cc(C(=O)N[C@@H](CCSC)C(=O)NCCCN2CCOCC2)c(=O)c2cc3c(cc21)OCO3	39.4%
C=CCn1c(SCC(N)=O)nnc1-c1cc2c(s1)CCC(CC)C2 (stereo not shown)	11.7%
O=C(N/N=C/c1ccc2nccnc2c1)c1ccc(Br)cc1	13.6%
CCCC(=O)NCc1cc(-c2nn(C)c(=O)c3ccccc23)ccc1C	11.7%
CCOC(=O)c1sc2nc(CC(=O)OC)nc(NCc3ccc(Cl)cc3)c2c1C	-0.526%
Cc1ccc(OCc2ccc(C(=O)NCC3CCCO3)cc2)cc1C (stereo not shown)	0.0765%
CC(NC(=O)COc1ccc(Oc2ccccc2)cc1)C(=O)O (stereo not shown)	-2.72%
Cc1ccccc1CS(=O)(=O)c1nnc([C@H](CC(C)C)NC(=O)OC(C)(C)C)o1	-5.66%
O=c1[nH]c(CSc2nnnn2-c2ccccc2)nc2ccccc12	5.15%
Cc1noc(C)c1COc1ccc(C(=O)N2CC(C)CC(C)C2)cc1 (stereo not shown)	11.6%
Cc1ccccc1Nc1nnc(SCC(=O)NC2CCCc3ccccc32)s1 (stereo not shown)	4.33%
COCC(C)NCC(=O)NC(C)CCc1ccccc1.O=C(O)C(=O)O (stereo not shown)	8.23%
CCOC(=O)c1c(S(=O)(=O)NCC(=O)Nc2ccccc2F)c(C)n(C)c1C	21.5%
CSc1ccc(CN2CCCC(CNC(=O)c3ccc(F)cc3)C2)cc1 (stereo not shown)	-59%
CCN(CCO)c1nc(N2CCCCC2)c2cnn(C)c2n1	13.6%
N/C(=N\OC(=O)N1CCOCC1)c1ccccc1	3.49%
COC(=O)C(CCSC)NC(=O)C12CC3CC(CC(C3)C1)C2 (stereo not shown)	11.4%
